In all, about 380,000 compounds went through this assay and about 4,000 (1.1%) were called active. The inconclusive results got no clear call from the source; some entries with a clear call stand among them for comparison. Calls come from the whole dose curve; as a rule, active = well fitted activation curve with a large enough effect; inconclusive = small, poorly fitted or top-dose-only effect; inactive = no such curve, though single readings can be large or run the other way. Potencies beside an inconclusive call are fits to weak or partial responses and may not hold up.
Assay: qHTS Assay to Identify Small Molecule Activators of BRCA1 Expression; note: nearly all actives have a fitted effect of over 80% in size
Conditions: MCF7-BRCA1-FFLuc reporter, luminescence, 48 h; activation: at 46.1 µM (top of the series), scaled: vehicle 0%, 10 µM genistein 100% unless noted
Outline: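 Compounds are tested at multiple concentrations on MCF7 BRCA1-luciferase reporter cells seeded at 2000 per well; after 48 h, a single luminescence end-point is taken and curves fitted to the normalized data.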
Potency is the fitted concentration of half-maximal effect; tags give direction and shape of the fitted curve.

**Q.** Which Potency does the source give for `Cc1occc1C(=O)N/N=C/c1cccc2ccccc12` here?
**A.** inconclusive: 3.55 µM [activator, full curve, poor fit]

**Q.** Which Potency does the source give for `Cc1sc(NC(=O)c2cccc(N3C(=O)CCC3=O)c2)nc1-c1ccccc1` here?
**A.** inactive

**Q.** For `O=C(CSc1nnc(NC(=O)c2cccc(F)c2)s1)NC1CCCC1`, which Potency is on record?
**A.** inconclusive: 10 µM [activator, partial curve, poor fit]

**Q.** With `COc1ccc(S(=O)(=O)N2CCCC(C(=O)NCc3ccncc3)C2)cc1Cl` (configuration not stated) as the compound, how does the Potency read?
**A.** inactive

**Q.** For `O=C(NCCCN1CCCC1)C1CCN(C(=O)c2cc3sccc3n2Cc2ccc(F)cc2)CC1`, which Potency is on record?
**A.** inactive

**Q.** Which Potency does the source give for `CC(C)(C)c1ccc(OC(=O)N2CCOCC2)cc1` here?
**A.** inconclusive: 14.1 µM [activator, partial curve, poor fit]

**Q.** Which Potency does the source give for `CCCCN(Cc1ccccc1)c1ncnc2nc[nH]c12` here?
**A.** active: 12.6 µM

**Q.** With `Cc1nn(CC(C)C)c(Cl)c1C(=O)NCC1CCCO1` (configuration not stated) as the compound, how does the Potency read?
**A.** inactive

**Q.** With `COc1ccc(NC(=O)O/N=C/c2c(C)nn(C(C)(C)C)c2C)cc1` as the compound, how does the Potency read?
**A.** inconclusive: 2 µM [activator, partial curve, poor fit]

**Q.** For `COC(=O)c1ccc2c(=O)[nH]c(CCl)nc2c1`, which Potency is on record?
**A.** inactive

**Q.** With `CC1CCN(C(=O)CSc2nnc3ccccn23)CC1` as the compound, how does the Potency read?
**A.** inconclusive: 4.47 µM [activator, partial curve, poor fit]

**Q.** With `Cc1cccc(Oc2coc3cc(OC(=O)c4cccs4)ccc3c2=O)c1` as the compound, how does the Potency read?
**A.** inconclusive: 12.6 µM [activator, partial curve, poor fit]

**Q.** Which Potency does the source give for `Cc1cc(C(=O)CSc2ccc(F)cc2)cc(C)c1O` here?
**A.** inconclusive: 3.98 µM [activator, full curve, poor fit]

**Q.** For `COc1ccc(C2C(C#N)=C(N)OC3=C2C(=O)CC(C)(C)C3)cc1OC` (configuration not stated), which Potency is on record?
**A.** inactive

**Q.** With `CCOc1cc(/C=C2\SC(=S)N(Nc3ccccc3)C2=O)ccc1O` as the compound, how does the Potency read?
**A.** inconclusive: 35.5 µM [activator, single point]

**Q.** Which Potency does the source give for `c1ccc(SCc2nc(-c3ccncc3)no2)cc1` here?
**A.** inconclusive: 12.6 µM [activator, partial curve, poor fit]

**Q.** For `N#CC1=C(N)SC(N)=C(C#N)C1c1c(Cl)cccc1Cl`, which Potency is on record?
**A.** inactive

**Q.** For `Cc1cc(C(=O)NC2Cc3ccccc3C2)c(C)o1`, which Potency is on record?
**A.** inconclusive: 12.6 µM [activator, partial curve, poor fit]

**Q.** With `Cc1occc1C(=O)N/N=C/C(Br)=C\c1ccccc1` as the compound, how does the Potency read?
**A.** inconclusive: 0.631 µM [activator, full curve, poor fit]

**Q.** With `CCOc1cccc(C2C=C(c3ccc4c(c3)OCO4)NC(c3cccc(Br)c3)N2)c1O` (configuration not stated) as the compound, how does the Potency read?
**A.** inactive

**Q.** With `O=C(CNC(=O)c1ccc(Cl)cc1)c1ccccc1` as the compound, how does the Potency read?
**A.** inconclusive: 2 µM [activator, full curve, poor fit]

**Q.** For `Cc1ccc(-n2nc3ccc(N)cc3n2)cc1`, which Potency is on record?
**A.** inconclusive: 1.26 µM [activator, full curve, poor fit]

**Q.** With `CCCCOc1ccccc1NC(=O)C=C(C)C` as the compound, how does the Potency read?
**A.** inactive

**Q.** Which Potency does the source give for `O=C(Nc1ccccc1C(F)(F)F)c1cc(-c2ccc3c(c2)OCCO3)on1` here?
**A.** inconclusive: 35.5 µM [activator, partial curve, poor fit]

**Q.** Which Potency does the source give for `Cc1ccc(NC(=O)c2ncn(CC(=O)N3CCN(c4ccccn4)CC3)n2)cc1C` here?
**A.** inactive

**Q.** For `NC(Cc1ccc(F)cc1)c1csc(NC(=O)NC(c2ccccc2)c2ccccc2)n1` (configuration not stated), which Potency is on record?
**A.** inactive

**Q.** For `Cc1cc(N/N=C/c2cccc(Br)c2)nc2ccccc12`, which Potency is on record?
**A.** inconclusive: 11.2 µM [activator, partial curve, poor fit]

**Q.** Which Potency does the source give for `O=C(/C=C/c1ccco1)Nc1cccc(NC(=O)/C=C/c2ccco2)n1` here?
**A.** inconclusive: 8.91 µM [activator, partial curve, poor fit]

**Q.** Which Potency does the source give for `CN(C(=O)/C=C/c1ccc2c(c1)OCO2)c1ccccc1` here?
**A.** active: 3.16 µM

**Q.** Which Potency does the source give for `CCOC(=O)c1ccc2nc(C)c(CC)c(Cl)c2c1` here?
**A.** inconclusive: 25.1 µM [activator, single point]

**Q.** With `CCCCNC(=O)c1onc(CSc2cc(C)cc(C)c2)c1C(=O)NCCCC` as the compound, how does the Potency read?
**A.** inactive

**Q.** For `CCOc1ccc2nc(NC(=O)c3ccoc3C)sc2c1`, which Potency is on record?
**A.** inconclusive: 0.501 µM [activator, full curve, poor fit]

**Q.** Which Potency does the source give for `Clc1ccc(OCc2cn3ccccc3n2)c2ncccc12` here?
**A.** active: 3.16 µM

**Q.** Which Potency does the source give for `CN(CCC#N)C(=O)COC(=O)c1c2c(nc3ccccc13)/C(=C/c1ccco1)CC2` here?
**A.** inconclusive: 17.8 µM [activator, single point]

**Q.** For `CC(=O)Nc1ccc(Nc2nc(-c3cc4ccccc4oc3=O)cs2)cc1`, which Potency is on record?
**A.** inconclusive: 1 µM [activator, full curve, poor fit]

**Q.** Which Potency does the source give for `S=c1[nH]c(-c2ccccc2)cs1` here?
**A.** inactive

**Q.** Which Potency does the source give for `O=c1[nH]c(COc2ccc(Cl)cc2Cl)nc2ccccc12` here?
**A.** inconclusive: 2.24 µM [activator, full curve, poor fit]

**Q.** With `c1csc(Cc2nc(-c3ccc(-n4cccc4)cc3)no2)c1` as the compound, how does the Potency read?
**A.** inconclusive: 15.8 µM [activator, single point]

**Q.** With `COC(=O)C(Cc1ccc(OC(=O)c2ccccc2Cl)cc1)N1Cc2ccccc2C1=O` (configuration not stated) as the compound, how does the Potency read?
**A.** active: 6.31 µM

**Q.** For `O=C(Nc1ccc2c(c1)CCC2)c1cccs1`, which Potency is on record?
**A.** inconclusive: 2 µM [activator, partial curve, poor fit]

**Q.** For `Cc1cccc(-c2nnc(NC(=O)c3ccco3)s2)c1`, which Potency is on record?
**A.** inconclusive: 7.94 µM [activator, partial curve, poor fit]

**Q.** With `O=C(c1ccc2c(=O)n3c(nc2c1)CCCCC3)N1CCN(c2ccc(Cl)cc2)CC1` as the compound, how does the Potency read?
**A.** inactive

**Q.** With `Cc1nc2ccc(NC(=O)N3CCCCC3)cc2s1` as the compound, how does the Potency read?
**A.** active: 11.2 µM

**Q.** For `CSc1ccc(/C=C2\C=Cc3cc([N+](=O)[O-])ccc32)cc1`, which Potency is on record?
**A.** inconclusive: 6.31 µM [activator, partial curve, poor fit]

**Q.** Which Potency does the source give for `CN(C)CCSc1nnc(-c2ccccc2)o1` here?
**A.** inconclusive: 17.8 µM [activator, partial curve, poor fit]

**Q.** With `CC(=NNC(=S)Nc1cccc(C)c1)c1ccccn1` as the compound, how does the activation read?
**A.** inconclusive: -84% [activator]

**Q.** For `CC(=O)N(c1ccc2ccccc2c1)C1SC(=O)N(c2cccc(C)c2)C1=O` (configuration not stated), which Potency is on record?
**A.** inactive
